The target in test [1] is T1, TNFR-associated factor 2 (TRAF2) (human (endogenous in primary keratinocytes)) (UniProt Q12933).
T1 sequence: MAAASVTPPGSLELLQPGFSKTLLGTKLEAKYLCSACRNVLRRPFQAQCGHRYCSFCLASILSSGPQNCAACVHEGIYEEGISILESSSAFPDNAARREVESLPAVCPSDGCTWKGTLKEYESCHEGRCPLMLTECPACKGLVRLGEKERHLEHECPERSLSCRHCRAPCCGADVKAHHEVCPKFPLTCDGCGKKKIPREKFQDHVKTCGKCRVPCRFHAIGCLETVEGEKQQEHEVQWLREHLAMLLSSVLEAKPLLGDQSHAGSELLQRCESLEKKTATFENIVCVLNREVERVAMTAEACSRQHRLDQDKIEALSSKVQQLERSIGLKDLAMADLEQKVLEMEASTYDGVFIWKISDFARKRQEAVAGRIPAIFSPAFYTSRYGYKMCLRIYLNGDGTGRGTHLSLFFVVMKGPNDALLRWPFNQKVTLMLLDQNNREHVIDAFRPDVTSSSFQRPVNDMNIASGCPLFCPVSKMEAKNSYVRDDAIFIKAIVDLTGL
Briefly: co-IP; lysates of TNFR2-overexpressing keratinocytes stimulated with TWEAK or control buffer; target IgG overnight at 4°C, protein G, Western blot; pairs with Fn14: TWEAK-stimulated cells.

Amino acid sequences for entries named in this document (tags omitted). Residues count along the entry.
UniProt P20333, residues 23-461: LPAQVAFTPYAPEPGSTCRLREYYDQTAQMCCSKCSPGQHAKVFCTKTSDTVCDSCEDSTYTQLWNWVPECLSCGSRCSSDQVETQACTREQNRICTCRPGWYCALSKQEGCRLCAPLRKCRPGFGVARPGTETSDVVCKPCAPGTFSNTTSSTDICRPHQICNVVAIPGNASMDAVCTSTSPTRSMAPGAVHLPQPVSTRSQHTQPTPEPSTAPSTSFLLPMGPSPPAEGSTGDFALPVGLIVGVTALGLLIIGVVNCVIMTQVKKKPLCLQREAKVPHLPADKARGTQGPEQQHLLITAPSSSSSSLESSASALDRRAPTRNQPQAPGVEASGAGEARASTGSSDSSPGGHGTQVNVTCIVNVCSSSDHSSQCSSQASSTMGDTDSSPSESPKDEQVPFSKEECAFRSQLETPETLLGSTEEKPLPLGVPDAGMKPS
UniProt Q9NP84, residues 28-129: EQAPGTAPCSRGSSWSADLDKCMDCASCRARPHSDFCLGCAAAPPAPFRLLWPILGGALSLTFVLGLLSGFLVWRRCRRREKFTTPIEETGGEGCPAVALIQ

The target of test [2] is T1, TNFR-associated factor 2 (TRAF2) (human (endogenous in primary keratinocytes)). Briefly: co-IP; lysates (RIPA buffer) of normal human primary keratinocytes, nonstimulated or TWEAK-stimulated (100 ng/ml); target IgG overnight at 4°C, protein G, Western blot; pairs with Fn14: TWEAK-stimulated cells.
Test [3] has the same target. Briefly: condition: only nonstimulated cells (without TWEAK); co-IP; lysates of TNFR2-overexpressing keratinocytes, nonstimulated (control buffer); target IgG overnight at 4°C, protein G, Western blot. (A western blot detects proteins with antibodies after separation by electrophoresis.)
For test [4] the target is unchanged. As to the kind of experiment: condition: only nonstimulated cells (without TWEAK); co-IP; lysates (RIPA buffer) of normal human primary keratinocytes, nonstimulated (no TWEAK); target IgG overnight at 4°C, protein G, Western blot.

The source of these data is paper PMC6915140.

No constants are given. Whether binding was seen depends on the method and setting. In cells and extracts the contact can be indirect. Some entries that bind do so weakly or less than the wild type.

“TNF receptor 2 (TNFR2), overexpressed in keratinocytes (from UniProt P20333 23-461)”: the binding entry in test [1] is “binds”.

Consider “fibroblast growth factor-inducible 14 (Fn14) (from UniProt Q9NP84 28-129) (receptor)”, for which the binding result in test [1] was “binds”; in test [2], “binds”; in test [3], “no binding”; in test [4], “no binding”.
